Test results published in paper PMC4336329 (PLoS ONE, 2015).
In all, about 310,000 compounds went through this assay and about 14,000 (4.5%) showed an effect of 50% or more. Effects have a minus sign here. The list shows a part of the results. Where a SMILES comes first, the peptide text is derived from it. [ ]: non-standard residue; d: D form. The star is where a group is joined. ξ: configuration not given here. Boc = CC(C)(C)OC(=O)*; ξP = O=C(O)C1CCCN1

Molecular target: human ether-à-go-go-related gene (hERG) potassium channel (human, UniProt Q12809)
Sequence (Q12809 whole entry, looked up): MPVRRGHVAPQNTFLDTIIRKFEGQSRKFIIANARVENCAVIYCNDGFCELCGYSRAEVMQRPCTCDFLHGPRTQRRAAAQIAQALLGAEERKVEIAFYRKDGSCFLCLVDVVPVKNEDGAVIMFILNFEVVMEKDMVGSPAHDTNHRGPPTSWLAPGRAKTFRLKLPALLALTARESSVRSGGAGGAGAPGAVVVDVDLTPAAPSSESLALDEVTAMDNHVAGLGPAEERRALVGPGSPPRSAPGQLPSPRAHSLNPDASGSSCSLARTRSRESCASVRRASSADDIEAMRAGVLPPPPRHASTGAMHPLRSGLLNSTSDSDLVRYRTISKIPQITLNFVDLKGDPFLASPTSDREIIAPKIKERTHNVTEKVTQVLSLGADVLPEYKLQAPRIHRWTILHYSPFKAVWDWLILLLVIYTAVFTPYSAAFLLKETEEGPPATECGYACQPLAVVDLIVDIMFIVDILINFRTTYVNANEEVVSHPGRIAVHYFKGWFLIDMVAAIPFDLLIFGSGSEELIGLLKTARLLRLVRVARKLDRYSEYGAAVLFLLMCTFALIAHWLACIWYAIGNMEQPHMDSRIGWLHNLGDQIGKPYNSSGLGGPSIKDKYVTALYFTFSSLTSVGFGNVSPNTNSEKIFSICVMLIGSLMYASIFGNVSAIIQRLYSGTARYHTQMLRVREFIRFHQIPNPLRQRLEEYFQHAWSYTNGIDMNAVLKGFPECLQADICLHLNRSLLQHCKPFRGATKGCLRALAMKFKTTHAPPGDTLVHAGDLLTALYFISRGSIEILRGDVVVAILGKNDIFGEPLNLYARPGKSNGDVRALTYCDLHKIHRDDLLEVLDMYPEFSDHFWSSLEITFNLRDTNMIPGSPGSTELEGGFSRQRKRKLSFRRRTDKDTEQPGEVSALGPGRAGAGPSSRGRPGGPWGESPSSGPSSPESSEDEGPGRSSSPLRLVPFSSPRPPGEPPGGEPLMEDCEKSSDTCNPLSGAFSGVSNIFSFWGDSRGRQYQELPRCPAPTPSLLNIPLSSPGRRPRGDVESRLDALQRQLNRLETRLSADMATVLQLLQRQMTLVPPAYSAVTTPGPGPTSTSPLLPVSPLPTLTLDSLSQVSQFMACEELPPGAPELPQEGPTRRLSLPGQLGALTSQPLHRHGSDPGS
Assay: primary screen, population patch clamp on CHO cells stably expressing hERG
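Also: peak tail current of the secondary pulse compared with the same well before compound.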

Structure (SMILES) | hERG current change (%, negative = inhibition) at 10uM
COc1ccccc1N(C(=O)c1ccncc1)c1nc(-c2ccc([N+](=O)[O-])cc2)cs1 | -4.73%
C(=N\N1CCN(Cc2cccc3ccccc23)CC1)/c1ccco1 | -25.5%
Cn1c(=O)c2c(ncn2CC(=O)NCc2cccnc2)n(C)c1=O | 5.06%
CS(=O)(=O)N1CCc2cc(S(=O)(=O)N3CCCCC3)ccc21 | -14.8%
O=C(NNC(=O)c1cccnc1)NC12CC3CC(CC(C3)C1)C2 | -2.41%
O=P(C(=NCCO)NO)(N1CCOCC1)N1CCOCC1 | 9.46%
CN(C)C(=O)c1cccn(Cc2ccc(C(F)(F)F)cc2)c1=O | 6.32%
CCOc1ccc(NC(=O)C2CC(=O)N(c3ccc4c(c3)OCCO4)C2)cc1OCC (stereo not shown) | -7.99%
CCCCOC(=O)CNc1nnc(SCC(=O)OCC)[nH]c1=O | 5.93%
Cc1ccccc1CSc1nnc(-c2ccco2)n1Cc1ccco1 | -75.4%
COc1ccccc1OCC(=O)NNC(=O)c1cnccn1 | 2.77%
Cc1nn(CCCC(=O)NCc2ccco2)c(=O)c2nn(-c3ccccc3)c(C)c12 | 14.7%
CCSc1nc2ccccc2n1CC(=O)N1CCOCC1 | -5.37%
CC1Cc2ccccc2N1c1nc(C2CC2)nc2c1nnn2Cc1ccccc1 (stereo not shown) | 11.5%
O=C(NNc1ccc([N+](=O)[O-])cc1)C12CC3CC(CC(C3)C1)C2 | 19.5%
O=C(Oc1ccc(-n2cnnn2)cc1)c1ccccc1 | 8.29%
Cc1cc(N2CCN(S(=O)(=O)c3ccccc3)CC2)c2ccccc2n1 | -73.3%
Clc1nnc(NN=C2CCCC2)c2ccccc12 | -1.78%
COc1ccccc1CCNC(=O)CSc1ccc(-c2ccco2)nn1 | -38.3%
CC1Oc2cc3c(-c4c(O)cc(O)c5c(O)c6c(cc45)OC(C)C(C)C6=O)c(O)cc(O)c3c(O)c2C(=O)C1C (stereo not shown) | 10.8%
CCc1cccc(OCC(=O)Nc2ccc(C(=O)O)cc2NC(=O)COc2cccc(CC)c2)c1 | 21.1%
Cc1ccc(C(c2sc3nc(C)nn3c2O)N2CC(C)OC(C)C2)cc1 (stereo not shown) | 13.3%
O=C(NCc1ccccc1)c1cc(-c2ccco2)on1 | -41.6%

Structure (SMILES) | hERG current change (%, negative = inhibition) at 10uM
COc1ccc2nc(NC(=O)CCc3ccc(OC)c(OC)c3)sc2c1 | 26.2%
O=c1[nH]c(CN2CC=C(c3ccccc3)CC2)nc2scc(-c3ccccc3)c12 | 6.72%
COc1cccc(CNS(=O)(=O)c2cc(-c3cc(C)no3)ccc2C(C)C)c1 | -7.33%
CCOc1ccc(Nc2nc(Cc3nnc(SCC(=O)c4ccc(C)cc4)o3)cs2)cc1 | 7.7%
CCn1nc(C)cc1C(=O)N1CCCC(C(=O)c2ccccc2SC)C1 (stereo not shown) | -1.16%
CCSCc1nnc(SCC(=O)Nc2ccc(OC)cc2)n1C | 0.453%
O=C1c2ccccc2C(=O)N1c1ccc(Cc2ccncc2)cc1 | -11.4%
C=CCNC(=O)c1cccc(Br)c1 | 21.6%
O=C1CC[C@@H](CN(Cc2ccccn2)Cc2nc(-c3ccc(C(F)(F)F)cc3)no2)N1 | -62.7%
O=C(NCc1ccc(Cl)cc1)Nc1ccc(F)cc1 | 27.6%
CCN(CC(=O)NC(C)(C)C)C(=O)c1ccccc1SCC(=O)NC1CCCCCCC1 | 17.6%
CC(C)N1CCC(N2CCN(C3CCCCCC3)CC2CCO)CC1 (stereo not shown) | 15.1%
Cl.NCCSC1CC(=O)N(Cc2ccc(F)cc2)C1=O (stereo not shown) | -20.4%
COc1ccc(NC(=O)c2cccc([N+](=O)[O-])c2)cc1 | 13%
COC(=O)CNC(=O)C1CCCN1C(=O)OC(C)(C)C (stereo not shown) (Boc-[ξP]-Gly-OMe) | 6.85%
CC(C)CNC(=O)COC(=O)c1c2c(nc3ccccc13)CCC2 | 4.12%
Cc1nnc(SCC(=O)Nc2sccc2C(N)=O)n1Cc1ccccc1 | -7.55%
CCOC(=O)/C(C#N)=C/c1cccc(C)c1 | 12.6%
O=C(Cc1ccc(Cl)cc1)N1CCc2ccccc2C1 | 4.94%
CC(C(=O)NC1CCCC1)N(C(=O)CS(=O)CC(=O)Nc1ccc(F)cc1)c1ccc2c(c1)OCCO2 (stereo not shown) | -3.58%
NNC(=O)CS(=O)(=O)CS(=O)(=O)CC(=O)NN | 12.2%
CCN(CC)CC(O)CN1C(=O)NC(C)(C)C1=O (stereo not shown) | 22.3%
CCOc1ccccc1C(=O)Nc1ccsc1C(=O)OC | -0.813%

Structure (SMILES) | hERG current change (%, negative = inhibition) at 10uM
FC(F)(F)Oc1ccc(NC2=NCCCS2)cc1 | -24.4%
O=C(CN1CCCCC1)NNc1nc(-c2ccccc2)c2cc(Br)ccc2n1 | -55.4%
Cc1[nH]c2ccccc2c1C(=O)CN1CCCC(C)C1 (stereo not shown) | 14%
Cc1cc(CNC(=O)c2ccc3c(c2)OCO3)c2ccccc2n1 | 5.24%
Cl.O=C(COc1ccc(Br)cc1CNC1CCCC1)Nc1ccccc1 | -73.1%
O=C(COC(=O)c1c2c(nc3ccccc13)CCCC2)Nc1ccc2c(c1)OCO2 | 3.1%
COc1cccc(CNC(=O)CSc2nnc3c(n2)[nH]c2ccccc23)c1 | -34.4%
Cc1cc(C(=O)CCl)c(C)n1-c1cccc(S(=O)(=O)N2CCOCC2)c1 | -77.4%
c1ccc(COc2ccccc2CNC2CCCC2)cc1 | -39.7%
Nc1c(C(=O)O)sc2nc(-c3ccccc3)cc(-c3ccc(F)cc3)c12 | 18.8%
O=C(NNC(=O)c1cc(-c2ccncc2)nc2ccccc12)c1ccccc1F | -22.3%
COC(=O)C1(Cc2ccccc2)NC(c2ccc(F)cc2)C2C(=O)N(C)C(=O)C21 (stereo not shown) | -3.11%
CCCn1nnnc1SCC(=O)c1ccc2c(c1)OCCO2 | -16.6%
CCOc1ccc(N(CC(=O)Nc2ccc(C)cc2)S(=O)(=O)c2c(C)noc2C)cc1 | -1.76%
Cc1c(NC(=O)c2cc(C3CC3)on2)c(=O)n(-c2ccccc2)n1C | 3.21%
Cc1ccc(-c2nc(SC(C)C(=O)N3CCCC3)n[nH]2)cc1 (stereo not shown) | 19.5%
CC(=O)N1CCOc2ccc(S(=O)(=O)N3CCC(C(=O)Nc4ccc(C)cc4)CC3)cc21 | -14.8%
O=C(Nc1ccc(S(=O)(=O)Nc2nccs2)cc1)c1cccc(S(=O)(=O)N2CCOCC2)c1 | 9.27%
O=C(Nc1ccc(-n2cnnn2)cc1)c1cn2ccccc2n1 | 16.6%
Cc1cc(NC(=O)CNC(=O)C2CCCCC2)no1 | 6.31%
CCOc1ccccc1C(=O)NCCCN1CCN(CCCNC(=O)c2ccccc2OCC)CC1 | -53.3%
COc1ccc(/C=N/NC(=O)c2[nH]ncc2Br)c(OC)c1 | -5.3%
Cc1ccc(NC2OC(CO)C(O)C(O)C2O)cc1 (stereo not shown) | -18%

Structure (SMILES) | hERG current change (%, negative = inhibition) at 10uM
CCCC(C(=O)Nc1cccc(S(=O)(=O)N2CCCC2)c1)c1ccccc1 (stereo not shown) | -48.2%
O=C(CSc1nc(O)cc(=O)[nH]1)N1CCCc2ccccc21 | 18.9%
Cn1cc(S(=O)(=O)Oc2ccccc2)c(=O)n(C)c1=O | 1.06%
O=C(Nc1ccn(Cc2ccccc2F)n1)c1ccc(COc2cccc(Br)c2)cc1 | 5.54%
CC(C)CCn1c(COc2ccccc2)n[nH]c1=S | 14.9%
O=C(COC(=O)C1C2CC3OC(=O)C1C3C2)Nc1ccc(Cl)cc1 (stereo not shown) | -32.5%
CN(CC(=O)Nc1ccc(C#N)cc1)Cc1ccc(Cl)c(Cl)c1 | -60.8%
C/C(=N/NC(=O)Cc1cc(=O)[nH][nH]1)c1ccc([N+](=O)[O-])cc1 | -0.979%
CN(C)CCN(C(=O)c1ccc2ccccc2c1)c1nc2ccc(F)cc2s1.Cl | 11.1%
COc1ccc(NC(=O)c2cc(C)cc(C)c2)cc1S(=O)(=O)N1CCCCC1 | -0.0501%
CCc1ccccc1NC1Nc2cc(C)nn2S1 (stereo not shown) | 5.39%
COc1ccc(C(C#N)N2N=C(C)CC2(C)C)cc1OC (stereo not shown) | 14.4%
O=C(NCCS(=O)(=O)NCc1ccccn1)c1ccccc1 | 8.92%
CCc1ccc(-c2cc(C(=O)N/N=C/c3ccccn3)[nH]n2)cc1 | -41.7%
CC1(C)CC(O)(CCNCc2ccc3c(c2)OCO3)CCO1 (stereo not shown) | -4.43%
O=C(Nc1cccc([N+](=O)[O-])c1)c1cc2ccccc2cc1O | 11.1%
O=C(NCc1ccccc1)c1cccc(Br)n1 | 2.99%
O=c1ccc(Cl)nn1-c1ccccc1 | 10.3%
CCCCC1CCC(C(=O)Nc2ccccc2)CC1 (stereo not shown) | 2.62%
Brc1ccc2c(c1)OCCOCCOCCOCCOCCO2 | -76.4%
O=C(NCCCN1CCOCC1)c1cccc(S(=O)(=O)N2CCN(c3ccccc3)CC2)c1 | -71.8%
CC1CCN(S(=O)(=O)c2nnc(NC(=O)c3cccc([N+](=O)[O-])c3)s2)CC1 | 16.4%
